Experimental data from the supplement of paper PMC3334620.
Whole data set: some 33,000 sequences, median “E-score (-0.5 to 0.5)” near -0.013, cut for the highest 2% near 0.3. The list shows a part of the results.

biological target: T1, Msn1 (UniProt P22148); assay: PBM E-score (8-mer binding enrichment) (E-score (-0.5 to 0.5)); higher = stronger / more preferred TF binding; most listed sequences are background and not binding sites; conditions: protein concentration: 200 nM; construct: GST-full length
T1 sequence: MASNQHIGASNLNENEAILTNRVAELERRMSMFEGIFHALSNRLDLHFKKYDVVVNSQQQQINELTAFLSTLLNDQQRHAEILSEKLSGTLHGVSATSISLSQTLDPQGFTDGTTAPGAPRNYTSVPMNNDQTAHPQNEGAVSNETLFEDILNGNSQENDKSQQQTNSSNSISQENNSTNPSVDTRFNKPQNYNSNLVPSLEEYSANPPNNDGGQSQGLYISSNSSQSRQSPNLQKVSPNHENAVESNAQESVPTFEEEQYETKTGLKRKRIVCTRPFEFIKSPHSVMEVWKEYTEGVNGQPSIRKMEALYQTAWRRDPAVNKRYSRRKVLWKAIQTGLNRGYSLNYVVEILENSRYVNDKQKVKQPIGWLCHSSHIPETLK
Description: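 Universal 'all 10-mer' protein binding microarrays (Agilent AMADID 015681) probed with GST-tagged S. cerevisiae TFs (full-length or DBD) made by in vitro transcription/translation (PURExpress), about 100-200 nM. Bound TF was detected with fluorescent anti-GST. Each ungapped 8-mer (which stands for itself and its reverse complement) is scored by the PBM enrichment score (E-score), a modified Wilcoxon-Mann-Whitney statistic from -0.5 to +0.5, computed with the Universal PBM Analysis Suite. Scale: above 0.35 generally sequence-specific binding.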

| Sequence | PBM E-score |
| --- | --- |
| CATTTGTC | 0.485 |
| CATACTGA | 0.00482 |
| ACCCTCGG | 0.0965 |
| GACATACA | 0.414 |
| ACTAACTG | 0.0908 |
| AACGCCGT | 0.00803 |
| AATCAGCG | -0.0445 |
| ACACTGGA | 0.0822 |
| GCTGTATA | -0.0745 |
| GCATGGGA | -0.139 |
| AAATTCTC | -0.0923 |
| CGACCTGA | 0.0583 |
| GATCCCAA | 0.0564 |
| CCTATTGC | -0.109 |
| AAATACCT | 0.0549 |
| ACTATGAA | 0.112 |
| ATGGGCGA | -0.219 |
| CGCAGCTC | -0.131 |
| GGAGTCAC | -0.164 |
| GCCTTTCA | -0.179 |
| GTCCGCAA | 0.281 |
| ATGGCAGG | 0.0777 |
| AGACAAGG | 0.162 |
| CGGCAGCA | -0.259 |
| GCGCTTAA | -0.139 |

| Sequence | PBM E-score |
| --- | --- |
| CGACTTCC | -0.11 |
| TCGTGGCA | -0.0121 |
| AGGTCGCG | 0.0713 |
| ACCTACCA | -0.0797 |
| CGAGAGGC | -0.138 |
| GCGTCTAA | 0.0281 |
| AAATACTC | 0.0436 |
| ATGGCGGG | -0.0236 |
| CGCTAGAA | -0.232 |
| AGTTGAGG | -0.0851 |
| ACTTATCC | 0.095 |
| AAGGTTTC | -0.0588 |
| GCCTGGAC | -0.0678 |
| ACCTGCTA | -0.0802 |
| GAGCTTGA | -0.0834 |
| CGGAACCC | 0.0374 |
| AGAGAAGG | -0.306 |
| ATTGAATC | 0.0318 |
| ATTTCACG | 0.0828 |
| AGACTAAG | 0.0762 |
| TCTTCTCA | -0.139 |
| CGCGGGAG | -0.238 |
| ATTAAAAC | 0.156 |
| GCGCCAAC | 0.0698 |
| ACCAGAGT | -0.193 |

| Sequence | PBM E-score |
| --- | --- |
| AGAGTCCT | -0.0894 |
| GATCCTGC | -0.042 |
| CACTTATG | 0.092 |
| GACCCAGA | -0.039 |
| CCCGAAGC | 0.0581 |
| TACTGCCA | 0.124 |
| AGTGTACC | -0.0146 |
| GCCGGCGC | 0.0222 |
| CTGGTTCC | -0.169 |
| CTTTTTTC | 0.178 |
| CCGATGAA | 0.0935 |
| TAGCCCGA | 0.286 |
| ATGCGCCG | 0.195 |
| AGTGCGCA | 0.0141 |
| CAGGAGCC | -0.277 |
| ACTACGAT | 0.0187 |
| GTGGCACA | -0.116 |
| AGGTTGGC | -0.309 |
| TGATTCCA | -0.0819 |
| ACACCTTA | 0.133 |
| ATGCGCTC | -0.119 |
| CACATGTC | 0.431 |
| ATTGTCGA | 0.144 |
| ACATAAGA | 0.146 |
| AATGCAGG | 0.0132 |

| Sequence | PBM E-score |
| --- | --- |
| AGATTCTC | -0.158 |
| AACAATAG | -0.0379 |
| CTGATCAG | -0.047 |
| GCACTTGA | 0.0677 |
| CGTATCAA | 0.0969 |
| ATCACGAC | 0.117 |
| CAATTCCG | 0.00583 |
| GACAGACC | 0.0373 |
| AACAGACA | 0.295 |
| AACAGCAG | -0.0819 |
| AGATGCAA | -0.212 |
| AAGACTGC | -0.0856 |
| ACACAGCA | 0.0778 |
| AGCGACTG | -0.127 |
| TAAATAGA | -0.163 |
| CAGGAGCA | -0.122 |
| GCGGCCGA | -0.0302 |
| CATCGTCC | -0.0789 |
| ATCACACG | 0.0254 |
| ATTCTGAA | 0.0386 |
| CGGTTTGA | -0.00161 |
| CACCGCGC | -0.137 |
| AAGTTTAG | 0.103 |
| AGGGTTTG | -0.0242 |
| AGCCTCAG | -0.251 |

| Sequence | PBM E-score |
| --- | --- |
| CCGAGCGG | -0.119 |
| AGGAATCG | 0.00779 |
| CATGGTGC | -0.0558 |
| GTCATTTA | 0.156 |
| ACTTAGGG | -0.0588 |
| CGGTTTGC | -0.192 |
| AAAGATTG | 0.0201 |
| GGGCGGCA | -0.0793 |
| CTGAATCC | 0.0447 |
| GGATGAGA | -0.115 |
| CGTGGTGC | -0.259 |
| ATTGGTGA | 0.00301 |
| ATTACACA | 0.0559 |
| GAGTTCAA | 0.0674 |
| CCACATGC | 0.0198 |
| ACCGCGAT | 0.0313 |
| AGGCGATC | 0.00121 |
| AAGATCCC | -0.0498 |
| CTGGTTTC | -0.0707 |
| ACCGAACT | -0.0318 |
| AGCACAAC | 0.106 |
| AAATTGTG | -0.0335 |
| AAGGCTGA | -0.0984 |
| AAGAACAC | 0.255 |
| CAGTGCAC | -0.24 |

| Sequence | PBM E-score |
| --- | --- |
| GACCCCAC | -0.255 |
| ACCTGACC | -0.0514 |
| AAAAACAC | 0.146 |
| TCAATGGA | -0.0393 |
| GGTCGTGA | -0.0931 |
| ATACTTTG | 0.0663 |
| GAGAACCC | -0.0548 |
| AGATGCAG | -0.0152 |
| AATTATCT | 0.113 |
| CTCTTATA | 0.123 |
| GTAGCGTA | -0.0788 |
| AGTGTGCA | 0.0471 |
| CAAGACGA | 0.06 |
| ACGTTGAT | 0.00703 |
| CTGGCGGC | -0.23 |
| ATTTGAGC | -0.0055 |
| ACAGCCCA | -0.0163 |
| CATAGGTA | 0.0152 |
| ATGACATA | 0.417 |
| CGATGCAA | -0.241 |
| CCGACCGG | -0.121 |
| ATTCGATG | 0.0522 |
| ATCGCTCA | -0.074 |
| CAATGATA | 0.00306 |
| AGTTCACC | 0.0664 |

| Sequence | PBM E-score |
| --- | --- |
| GAGGCCAC | -0.173 |
| CGTGATAA | 0.1 |
| CCTCACAG | 0.0725 |
| GTTTGGTA | 0.0566 |
| ATTCTTCG | -0.172 |
| AAAGCCTT | -0.141 |
| CTGCATAA | 0.152 |
| AGGTAATA | 0.0727 |
| GTGGCCCA | -0.145 |
| ATCCCTCG | -0.0675 |
| AGGCCACA | -0.241 |
| CAAAAGCC | -0.132 |
| CGATTGTC | 0.348 |
| CTGATCGA | -0.198 |
| AATACAGC | 0.124 |
| TCCCCAAA | 0.096 |
| ACTTCATC | 0.0339 |
| AGGTCGTG | -0.0636 |
| GAAGGTAC | 0.065 |
| CCGCGGCG | -0.00413 |
| CCAGTGAA | -0.138 |
| GACGCCTA | -0.115 |
| CAAGACCC | -0.114 |
| AAGACTCG | 0.00163 |
| CACGCTGA | -0.127 |

| Sequence | PBM E-score |
| --- | --- |
| CAGCGCAG | -0.0833 |
| AGGGGTTC | -0.179 |
| AATTGGCA | -0.157 |
| ATCTTGAC | -0.13 |
| CCAGTACA | 0.177 |
| CGTGAATC | -0.104 |
| GGTCCAGA | 0.0191 |
| AGGTGGAC | -0.0313 |
| GTTCCGCA | 0.0671 |
| GAACGGTA | 0.0625 |
| ACTGCCTG | 0.0355 |
| ACGTGAAT | 0.102 |
| AACGTACG | 0.0495 |
| GCGGCTAC | -0.0262 |
| CGTCTACC | -0.0228 |
| AAGTAGAT | -0.00413 |
| ACGATGCG | -0.0359 |
| CGCTCACG | -0.034 |
| AAACGTCC | 0.317 |
| CCGCCCCG | 0.0277 |
| ATAAAATA | 0.183 |
| CGTTTTCA | 0.133 |
| GTGTTCGA | 0.0573 |
| GCTTCACA | -0.173 |
| AATCTCAG | 0.0019 |

| Sequence | PBM E-score |
| --- | --- |
| ACTTCTTG | 0.0109 |
| GCGAGCAC | -0.136 |
| GCTCAAAC | 0.0324 |
| ATTATGAA | 0.026 |
| AGTCGCAT | 0.0267 |
| GATGTCGC | 0.0908 |
| GATTGGGA | 0.051 |
| CTCATACC | 0.138 |
| CTGGTGGC | -0.267 |
| CGCTAGTA | 0.0794 |
| GGGAGCCC | -0.194 |
| AACATTTA | 0.252 |
| AGCCATGA | -0.0403 |
| CAGATTAG | -0.177 |
| TAACTTCA | 0.139 |
| CTGTTGTA | 0.153 |
| AAAGAACA | 0.148 |
| GACAACAA | 0.281 |
| AGCGGAAG | 0.0197 |
